Out of some 310,000 compounds screened, about 14,000 (4.5%) showed an effect of 50% or more. The effect is printed as a negative number. This is one part of the list.
molecular target: human ether-à-go-go-related gene (hERG) potassium channel (human, UniProt Q12809); experiment: primary screen, population patch clamp on CHO cells stably expressing hERG
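Note: peak tail current of the secondary pulse compared with the same well before compound.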

Chain of human ether-à-go-go-related gene (hERG) potassium channel (Q12809 whole entry, looked up): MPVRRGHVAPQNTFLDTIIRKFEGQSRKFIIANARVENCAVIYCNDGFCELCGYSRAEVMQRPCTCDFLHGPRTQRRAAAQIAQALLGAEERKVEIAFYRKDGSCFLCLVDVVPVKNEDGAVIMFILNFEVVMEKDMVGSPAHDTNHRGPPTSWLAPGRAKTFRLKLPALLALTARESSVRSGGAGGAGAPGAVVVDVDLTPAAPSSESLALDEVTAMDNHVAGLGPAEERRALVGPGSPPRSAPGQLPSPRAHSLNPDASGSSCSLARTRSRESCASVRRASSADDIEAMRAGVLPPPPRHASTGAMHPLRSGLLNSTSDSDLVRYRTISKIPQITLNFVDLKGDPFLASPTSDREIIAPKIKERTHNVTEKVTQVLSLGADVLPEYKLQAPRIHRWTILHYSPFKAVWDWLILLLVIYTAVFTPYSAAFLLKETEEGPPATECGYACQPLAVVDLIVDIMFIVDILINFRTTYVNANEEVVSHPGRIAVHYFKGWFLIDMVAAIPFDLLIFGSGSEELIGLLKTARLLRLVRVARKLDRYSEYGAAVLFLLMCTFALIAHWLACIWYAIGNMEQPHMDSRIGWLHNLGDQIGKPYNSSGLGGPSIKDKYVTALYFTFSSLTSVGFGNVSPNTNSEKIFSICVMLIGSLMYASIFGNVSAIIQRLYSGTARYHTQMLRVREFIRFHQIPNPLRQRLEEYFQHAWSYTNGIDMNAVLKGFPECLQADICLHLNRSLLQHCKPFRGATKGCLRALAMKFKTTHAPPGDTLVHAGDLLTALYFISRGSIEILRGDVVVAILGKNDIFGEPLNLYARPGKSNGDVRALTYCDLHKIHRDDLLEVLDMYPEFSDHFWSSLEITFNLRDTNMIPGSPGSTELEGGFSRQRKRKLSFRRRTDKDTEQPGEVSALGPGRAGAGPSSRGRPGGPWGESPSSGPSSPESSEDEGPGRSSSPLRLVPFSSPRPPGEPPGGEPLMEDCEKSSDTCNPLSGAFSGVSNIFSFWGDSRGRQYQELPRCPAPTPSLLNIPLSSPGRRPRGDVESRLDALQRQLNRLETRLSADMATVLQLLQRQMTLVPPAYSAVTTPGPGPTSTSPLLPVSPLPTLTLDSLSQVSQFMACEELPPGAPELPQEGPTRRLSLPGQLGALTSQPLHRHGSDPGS

Compound | hERG current change (%, negative = inhibition) at 10uM
COC(=O)c1ccccc1NC(=S)N(Cc1ccc2c(c1)OCO2)Cc1cc2ccc(OC)cc2[nH]c1=O | -13.6%
O=C(Cc1c(O)c2ccccc2[nH]c1=O)NC1CCCCCCC1 | -2.96%
Cc1cc(=O)oc2c(C)c(OC(C)C(=O)N3CC[C@@]4(O)CCCC[C@H]4C3)ccc12 (stereo partly shown) | -2.87%
CC(=O)N(/N=C/c1ccc([N+](=O)[O-])o1)c1nc2ccccc2c(=O)n1-c1ccccc1 | -26.8%
CC(=O)NNC(=O)c1[nH]c2ccc(Cl)cc2c1-c1ccccc1 | 10.4%
CC(NC(=O)c1ccc(C(C)(C)C)cc1)C(=O)O (stereo not shown) | -0.74%
Cc1nn(-c2ccccc2)c(C)c1NC(=O)COC(=O)CC(C)c1ccccc1 (stereo not shown) | -16%
Cc1cc(NCc2ccccc2)nc(N2CCOCC2)n1 | -21.3%
O=C(Cn1c2c(c(=O)n3ncnc13)CCC2)N/N=C/c1cccs1 | 0.665%
CCCC(=O)Nc1ccc(NC(=O)c2ccccc2)nc1 | 12.5%
Cc1cccc(OCC(=O)N2CCC(N3CCCCCC3)CC2)c1 | -11.2%
CCOc1ccc(CCNC(=O)CCNC(=O)c2ccccc2Cl)cc1OCC | 13.8%
COCCN1CCN(C(=O)c2ccc3nc(Cc4ccc(OC)c(OC)c4)oc3c2)CC1 | 2.42%
O=[N+]([O-])c1ccc(N2CCN(c3ccc(F)cc3)CC2)cn1 | -48.7%
N=c1c(C(=O)NCc2ccc(F)cc2)cc2c(=O)n3ccccc3nc2n1Cc1ccco1 | -77.8%
Cc1cc(C)n(CC(O)Cn2c3ccc(Cl)cc3c3cc(Cl)ccc32)c(=O)n1 (stereo not shown) | 5.62%
O=C(N/N=C/c1cccs1)c1cc(-c2ccc(Cl)s2)[nH]n1 | 13%
CN(CC(=O)Nc1ccc(Cl)c(C(F)(F)F)c1)C(=O)Cc1n[nH]c(=O)c2ccccc12 | -16.2%
CCCCn1c(=O)cc(C)n(-c2ccccc2)c1=O | 0.0608%
Cc1ccc(CCNC(=O)C2CCC(=O)N2C2CCCC2)cc1 (stereo not shown) | 4.57%
COC(=O)[C@@H](NC(=O)N1CCN(C(=O)C2COc3ccccc3O2)CC1)C(C)C (stereo partly shown) | -2.44%
CCOc1ccc(-c2cc(NC(=O)Cn3ncc4c3-c3ccccc3OC4)on2)cc1OCC | 13.6%
CCOC(=O)NC(=S)Nc1cccc(NC(=S)NC(=O)OCC)c1 | 18.7%
CC(=O)Nc1ccc(C(=O)N/N=C/c2ccc(F)cc2)cc1 | -23.3%
O=C(Cn1ncc2c1-c1ccccc1OC2)Nc1ccc(S(=O)(=O)N2CCCCC2)cc1 | -1.8%
Oc1ccc(Nc2nc(-c3cccs3)cs2)cc1 | 4.16%
COc1cc2c(CCNC(C)=O)c[nH]c2cc1Cl | 4.35%
COc1ccc(CCNc2oc(COc3ccccc3F)nc2C#N)cc1OC | -12.6%

Compound | hERG current change (%, negative = inhibition) at 10uM
CC(=O)NC(CC(=O)NC12CC3CC(CC(C3)C1)C2)c1ccccc1 (stereo not shown) | 1.55%
CCN(CC)CCCNC1=C(Cl)C(=O)c2ccccc2C1=O | -41.1%
O=C(NCc1ccccn1)c1cccc([N+](=O)[O-])c1 | -1.38%
CCc1sc(C(=O)NC(C)C2CCCO2)cc1Br (stereo not shown) | 2.9%
Cc1ccc(CNC(=O)C(=O)c2cn(CC(=O)N3CCOCC3)c3ccccc23)cc1 | -2.76%
CCN(CC)CCN1C(=O)C(=O)/C(=C(/O)c2cccc(OC)c2)C1c1ccccn1 (stereo not shown) | 8.24%
CCNC(=O)CC1C(=O)N(c2ccccc2)C(=O)N1CCc1ccc(OC)cc1 (stereo not shown) | -10.3%
Cc1ccc(N2C(=O)C3C4C=CC(C4)C3C2=O)cc1C (stereo not shown) | 13.3%
CC(Cc1ccccc1)NCC(=O)Nc1cc(N(C)C)nc2ccccc12.O=C(O)C(=O)O (stereo not shown) | -77.1%
CCOC(=O)c1c(NC(=O)CSc2nnnn2C)sc(C)c1-c1ccc(C)cc1 | -11.2%
CNCc1cc(Br)c(OCC(=O)Nc2ccccc2OC)c(OC)c1.Cl | -36.2%
COc1ccc(Cc2noc(CN3CCCN(Cc4ccc(F)cc4)CC3)n2)cc1OC | -60.8%
O=C1NC(=O)/C(=C/c2ccccc2OCc2ccccc2)S1 | 17.2%
O=C(NCCc1ccccc1)c1cccc2c1C(=O)N(C1CCCCC1)C2 | 13.8%
Cc1cc(C)cc(N(CC(=O)NC2CCCC2)C(=O)c2csnn2)c1 | 25.6%
CCCCn1c(N)c(N(CCOC)C(=O)COC(=O)Cc2cccc(OC)c2)c(=O)[nH]c1=O | -26.9%
Cc1cc2c(cc1C)-c1nnc(-c3ccc4ccccc4n3)n1C(C)(C)C2 | 5.88%
COC(=O)CSc1nc2cc3c(cc2cc1C)OCCO3 | 13.3%
CCn1c(=O)c(CCC(=O)NCC2CCCO2)c(C)c2c(C)nn(-c3ccccc3)c21 (stereo not shown) | 12.5%
COCCNC(=O)c1cc2cc(Cl)cc(Cl)c2oc1=O | -4.51%
O=C(CN1C(=O)/C(=C\c2ccc(F)cc2)Oc2ccccc21)N1CCN(c2ccccn2)CC1 | -2.49%
CCn1c(C)c(C(C)=O)c(N2CCN(c3ccccn3)CC2)nc1=S | -9.78%
CCOC(=O)C1CCN(C(=O)c2ccc(SC)cc2OC)CC1 | -19.8%
CN(c1ccccc1)S(=O)(=O)c1ccc(C(=O)OCC(=O)NC(N)=O)cc1 | 11%
Cc1ccc(S(=O)(=O)CCC(=O)Nc2nnc(CC(C)C)s2)cc1 | -1.45%
O=C(NCc1ccccn1)c1ccccc1Cl | 5.14%
Cc1cccc(C)c1OCc1nnc(SCC(=O)Nc2cccc(C(=O)N3CCOCC3)c2)n1C | -2.56%

Reference: paper PMC4336329 (PLoS ONE, 2015)
